PubChem BioAssay AID588855 (National Center for Advancing Translational Sciences (NCATS), 2011)
Hit rate of the full screen: of about 410,000 compounds, about 5,000 (1.2%) were called active. Inconclusive means that the source gave no clear call. Such entries were picked first, then a sample of the others. The call rests on the fitted dose curve; in most records, active means well fitted inhibition curve with a large enough effect; inconclusive means small, poorly fitted or top-dose-only effect; inactive means no such curve, though single readings can be large or run the other way. Potencies of inconclusive entries are doubtful fits and often do not repeat.
On the % scale 0 is the no-effect control and ±100 the full control effect; potency means the concentration at half of the fitted maximal effect; tags describe the fitted curve by direction and shape.

Experiment: qHTS for Inhibitors of TGF-b; further: nearly all actives have a fitted effect of over 65% in size
Conditions: HepG2 CAGA-GFP TGF-b/SMAD3 reporter, GFP fluorescence, 18 h, TGF-beta stimulated, 500 pg/mL final; series mostly up to 46.1 µM; activity, negative = inhibition: at the top concentration
Method in brief: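 Inhibition of TGF-beta-driven CAGA-GFP reporter expression in HEPG2 cells is measured by cellular GFP fluorescence after 18 h stimulation with 500 pg/mL recombinant TGF-beta in 1% FBS medium at 37 degrees C.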
In the case of `CC(Oc1ccccc1)C(=O)Nc1c2c(nn1-c1ccccc1)CS(=O)C2` (centres undefined), the Potency is reported as inconclusive: 6.31 µM [inhibitor, single point]. With `CCOC(=O)N1CCC(NC(=O)c2oc3c(c2C)-c2[nH]ncc2CC3)CC1` the Potency was inconclusive: 5.62 µM [inhibitor, single point]. In the case of `CCOC(=O)N1CCC(N2CCCC(C(=O)c3ccc4cc(OC)ccc4c3)C2)CC1` (centres undefined), the Potency is reported as inconclusive: 35.5 µM [inhibitor, single point]. With `Cc1ccc(NC(=O)C2CCCN(c3ncnc4onc(C)c34)C2)cc1Cl` (centres undefined) the Potency was inconclusive: 22.4 µM [inhibitor, partial curve, poor fit]. For `O=C(c1ccccc1)c1ccc2nc(N3CCN(c4ccc(F)cc4)CC3)c3nncn3c2c1`, the “activity, negative = inhibition” value was inactive: 0%. For `COc1cccc(NC(=O)Nc2cccs2)c1`, the “activity, negative = inhibition” value was inactive: -9.23%. For `c1ccc(CNc2nc(NCC3CC3)nc3cc(-c4ccccc4)sc23)cc1`, the Potency was inconclusive: 20 µM [inhibitor, single point]. In the case of `O=C(CSc1ccccn1)Nc1nonc1[N+](=O)[O-]`, the Potency is reported as active: 11.2 µM. With `CCOC(=O)CC(NC(=O)CCc1c(C)nc2cc(-c3ccccc3)nn2c1C)c1ccc(C)cc1` (centres undefined) the Potency was inconclusive: 14.1 µM [inhibitor, partial curve, poor fit]. With `O=C1NC[C@H](c2ccccc2)OC(=O)[C@H](Cc2ccc(F)cc2)C/C=C\C[C@@H]1CC(=O)N(CCO)Cc1ccccc1` the Potency was inconclusive: 7.08 µM [inhibitor, partial curve, poor fit]. In the case of `N#Cc1ccccc1NC(=O)C(=O)NCC(c1cccnc1)N1CCc2ccccc21` (centres undefined), the Potency is reported as inconclusive: 35.5 µM [inhibitor, single point]. For `COC(=O)C1(C)COP(=O)(Nc2ccc(OC)cc2)OC1` (centres undefined), the “activity, negative = inhibition” value was inactive: 2.96%. For `COc1cc(OC)c(NC(=O)C(C)n2nc(-c3ccc(C)cc3)c3c(c2=O)CCCC3)cc1Cl` (centres undefined), the Potency was inconclusive: 6.31 µM [inhibitor, partial curve, poor fit]. With `O=C(COC(=O)C12CC3CC(CC(Br)(C3)C1)C2)N1CCOCC1` the Potency was inconclusive: 35.5 µM [inhibitor, single point]. In the case of `O=CN1CCN(c2c([N+](=O)[O-])c(=O)oc3ccccc23)CC1`, the “activity, negative = inhibition” value is reported as inactive: -0.13%. For `COC(=O)c1ccc(NC(=O)CSc2nc3cc4ccccc4cc3[nH]2)cc1`, the Potency was inconclusive: 15.8 µM [inhibitor, single point]. With `CCS(=O)(=O)c1ccc2c(c1)N(S(=O)(=O)c1ccc(Cl)cc1)CC(C(=O)O)O2` (centres undefined) the Potency was inconclusive: 5.62 µM [inhibitor, single point]. In the case of `CCOc1ccc(S(=O)(=O)NC2CCCCCC2)cc1`, the Potency is reported as inconclusive: 20 µM [inhibitor, single point]. In the case of `CCCCn1c(N)c(N(CC(C)C)C(=O)c2ccc(OCc3c(C)noc3C)cc2)c(=O)[nH]c1=O`, the Potency is reported as inconclusive: 1.41 µM [inhibitor, partial curve, poor fit]. In the case of `Oc1ccc(C[C@H]2CNC(=S)N2CC2CCCN2C[C@H](Cc2ccccc2)N2C[C@H](Cc3ccc(O)cc3)N(CC3CCCCCC3)C2=S)cc1` (some centres undefined), the Potency is reported as active: 10 µM. With `Nc1cccc(C(=O)N/N=C/c2ccsc2)c1` the “activity, negative = inhibition” value was inactive: 5.31%. For `CCOC(=O)c1sc2cccc(F)c2c1S(=O)(=O)Nc1ccccc1F`, the Potency was inconclusive: 12.6 µM [inhibitor, partial curve, poor fit]. In the case of `S=C(Nc1cccc(Cl)c1)N(CCCN1CCCC1)Cc1cccn1Cc1ccc(Cl)cc1`, the Potency is reported as inconclusive: 31.6 µM [inhibitor, single point]. For `COc1cccc(NC(=O)CN2C(=O)CSc3ccc(S(=O)(=O)N4CCC(C)CC4)cc32)c1`, the Potency was inconclusive: 15.8 µM [inhibitor, single point]. With `Oc1ccc(Nc2nc(Cl)nc(NCc3ccco3)n2)cc1` the “activity, negative = inhibition” value was inactive: 4.49%. In the case of `Cc1ccc(-c2[nH]ncc2C(=O)c2cccc(F)c2)c(O)c1`, the “activity, negative = inhibition” value is reported as inactive: -0.56%. With `COc1ccc(Cn2c(SCc3ccc(C(=O)NCc4cccs4)cc3)nc3ccncc32)cc1` the Potency was inconclusive: 2 µM [inhibitor, partial curve, poor fit]. With `O=C(CNC(=O)c1ccc(Br)o1)Nc1ccc(F)c(S(=O)(=O)N2CCOCC2)c1` the Potency was inconclusive: 3.98 µM [inhibitor, single point]. With `COc1ccc(C23CC4CC(CC(C4)C2)C3)cc1C(=O)NCCN(C)C` the Potency was inconclusive: 35.5 µM [inhibitor, single point]. For `COc1ccc(S(=O)(=O)N(C)C[C@H]2Oc3ccc(NS(=O)(=O)c4cccs4)cc3CC(=O)N([C@H](C)CO)C[C@H]2C)cc1`, the Potency was inconclusive: 3.16 µM [inhibitor, single point]. With `CCCc1nnc(NC(=O)CCC(=O)N2CCN(Cc3ccc(C)cc3C)CC2)s1` the Potency was inconclusive: 11.2 µM [inhibitor, partial curve]. In the case of `CCOc1ccc(Nc2oc(-c3ccc(COc4ccc(C)cc4)o3)nc2C#N)cc1`, the “activity, negative = inhibition” value is reported as inactive: -0.759%. With `O=C(Cc1c[nH]c2ccccc12)N/N=C/c1ccccc1O` the Potency was inconclusive: 35.5 µM [inhibitor, single point]. In the case of `NNc1nc(-c2ccccc2Cl)c2cc(Br)ccc2n1`, the Potency is reported as inconclusive: 35.5 µM [inhibitor, single point]. In the case of `Cc1ccc([N+](=O)[O-])cc1S(=O)(=O)NCC1COc2ccccc2O1` (centres undefined), the “activity, negative = inhibition” value is reported as inactive: -20.3%. With `O=C(N=C1SCC(=O)N1c1ccccc1Cl)c1ccccc1` the Potency was inconclusive: 0.112 µM [inhibitor, full curve, poor fit]. For `CCc1ccc(C(=O)Nc2cccc(-c3nc4cc(C(C)C)ccc4o3)c2)cc1`, the “activity, negative = inhibition” value was inactive: -0.523%. For `CC(C)c1ccc(C2C3=C(CC(C)(C)CC3=O)NC3=C2C(=O)c2ccccc23)cc1` (centres undefined), the Potency was inconclusive: 10 µM [inhibitor, single point]. In the case of `COc1cccc(N(CC(=O)N/N=C(\C)c2cccs2)S(C)(=O)=O)c1`, the Potency is reported as inconclusive: 35.5 µM [inhibitor, single point]. In the case of `COc1cc(/C=N/NC(N)=S)ccc1OCc1ccc(C)cc1`, the Potency is reported as active: 17.8 µM. With `Cc1ccc(Cl)cc1NC(=O)c1ccc2nc(CCc3ccccc3)oc2c1` the Potency was inconclusive: 4.47 µM [inhibitor, partial curve, poor fit]. With `Cc1ccc(-n2c(N)c(C#N)c(-c3ccc(Cl)cc3)c(C#N)c2=O)cc1` the Potency was inconclusive: 17.8 µM [inhibitor, single point]. With `Cc1ccc(NC(=O)CSCC(=O)NCCc2ccccn2)c(C)c1` the “activity, negative = inhibition” value was inactive: 3.05%. For `C[C@@H]1CN([C@@H](C)CO)C(=O)c2cc(NC(=O)C3CCCCC3)ccc2O[C@@H](C)CCCCO[C@@H]1CN(C)Cc1ccncc1`, the “activity, negative = inhibition” value was inactive: 7.85%. With `O=C(NC(c1ccc2ccccc2n1)c1cccs1)C1CCN(Cc2cccc(C(F)(F)F)c2)CC1` (centres undefined) the Potency was inconclusive: 17.8 µM [inhibitor, partial curve, poor fit]. With `CN(C)c1ccc(/C=C/c2nc3ccccc3s2)cc1Cl` the Potency was inconclusive: 35.5 µM [inhibitor, single point]. For `CCOc1ccc(OC(=O)NC(c2ccccc2)C(Cl)(Cl)Cl)cc1` (centres undefined), the “activity, negative = inhibition” value was inactive: -20.9%. With `c1ccc(-c2c(-c3ccccc3)n(Cc3ccco3)c3ncnc(NCCCn4ccnc4)c23)cc1` the Potency was inconclusive: 35.5 µM [inhibitor, single point]. In the case of `CCOC(=O)c1c(C)[nH]c(C)c1S(=O)(=O)N(C)CC(=O)N1CCN(c2cccc(Cl)c2)CC1`, the Potency is reported as inconclusive: 14.1 µM [inhibitor, partial curve, poor fit]. In the case of `Cn1c(=O)c2c(nc(N3CCOCC3)n2Cc2ccccc2)n(C)c1=O`, the “activity, negative = inhibition” value is reported as inactive: -0.819%. In the case of `Cc1cc(C)n(-c2nc(SCCN(C)C)c3c4c(sc3n2)COC(C)(C)C4)n1`, the Potency is reported as inconclusive: 20 µM [inhibitor, single point]. For `Cc1ccc(C2CCN(C(=S)NC3CCCCC3)C2)cc1` (centres undefined), the Potency was inconclusive: 6.31 µM [inhibitor, full curve, poor fit]. With `CCCNC(=O)COc1ccc(S(=O)(=O)Nc2ccc(C)cc2)cc1` the Potency was inconclusive: 35.5 µM [inhibitor, single point]. In the case of `CCc1ccc(NC(=O)CCNC(=O)Cn2cnc3ccccc3c2=O)cc1`, the Potency is reported as inconclusive: 35.5 µM [inhibitor, single point]. In the case of `Cc1ccc(C(=O)c2c[nH]c3c(F)cc(F)cc3c2=O)cc1`, the Potency is reported as inconclusive: 6.31 µM [inhibitor, single point]. In the case of `Cc1noc2ncnc(Sc3ccccc3Cl)c12`, the Potency is reported as inconclusive: 22.4 µM [inhibitor, single point]. For `COc1ccc(C(=O)CSC2=NS(=O)(=O)c3cc(Cl)ccc3N2)cc1`, the “activity, negative = inhibition” value was inactive: -1.33%. For `CC#CCCCC(=O)Nc1ccccc1C(=O)O`, the Potency was inconclusive: 6.31 µM [inhibitor, single point]. With `O=C(c1ccccc1)N1CCN(c2nc3ccc([N+](=O)[O-])cc3s2)CC1` the Potency was inconclusive: 17.8 µM [inhibitor, single point]. With `Cn1cc([N+](=O)[O-])c(C(=O)Nc2ccc(Br)cn2)n1` the Potency was inconclusive: 15.8 µM [inhibitor, single point]. For `Cc1ccc(NC(=O)CSC2=C(C#N)C(c3ccco3)C3=C(CC(C)(C)CC3=O)N2)cc1` (centres undefined), the Potency was inconclusive: 35.5 µM [inhibitor, single point]. With `O=C(NNC(=O)c1ccc(S(=O)(=O)N2CCCCC2)cc1)c1ccccc1` the Potency was inconclusive: 2.51 µM [inhibitor, partial curve, poor fit]. With `O=C(O)c1cccc(NC(=S)N/N=C/c2ccccc2OCc2cccc(Br)c2)c1` the Potency was inconclusive: 31.6 µM [inhibitor, single point]. With `O=C(NCc1ccc(Cl)cc1)C1CCN(C(=O)c2ccc(Cl)cc2)CC1` the “activity, negative = inhibition” value was inactive: -8.59%.
